# Measurements: the supplement of paper PMC4723716
# ± gives the uncertainty stated by the source. Whole data set: some 9,900 compounds, median “viability index relative to DMSO control” near 1, cut for the lowest 2% near 0.85. Some of the results follow.
# Tested on: Plasmodium falciparum NF54 stage V gametocytes
# Experiment: viability index relative to DMSO control (fraction); higher = less gametocyte killing
# Details: 2.5 µM, library set: Broad Institute DOS, incubation time: 72 h
# Procedure, shortened: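 Viability index is the count of red-stained particles in a well divided by the plate mean of solvent-only wells. Particles of 20–70 µm2 were counted in one imaged field per well after one to two hours with 3 µl of 2.5 µM MitoTracker Red CMXRos and 0.13% saponin. Before staining, P. falciparum NF54 stage V gametocytes in serum-free medium (0.75% gametocytemia, 1.25% hematocrit, 10 µl, 1,536-well plates) were kept with compound at 2.5 µM for 72 hr at 37°C under low oxygen.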
row,Structure (SMILES),viability index
1,C[C@H](CO)N1C[C@H](C)[C@@H](CN(C)C)OCc2ccccc2-c2c(n(C)c3ccccc23)C1=O,1.04 ± 0.08
2,COCC(=O)Nc1ccc2c(c1)C(=O)N(C)C[C@@H](OC)[C@H](C)CN(C(=O)c1ccncc1)[C@H](C)CO2,1.06 ± 0.034
3,CC(C)CC#Cc1ccc([C@@H]2[C@@H](CO)N3C(=O)CN(C(=O)Nc4cc(F)ccc4F)C[C@@H]23)cc1,1.03 ± 0.033
4,C[C@@H]1CN([C@H](C)CO)C(=O)CCCn2cc(nn2)CO[C@H]1CN(C)C(=O)NC1CCCCC1,1.05 ± 0.052
5,COc1ccc(C[C@H]2CCn3nncc3COC[C@@H](c3ccccc3)NC2=O)cc1,1.01 ± 0.061
6,O=C(C[C@H]1C[C@@H]2c3cc(NC(=O)c4ccc5c(c4)OCO5)ccc3O[C@@H]2[C@@H](CO)O1)NCc1ccc(Oc2ccccc2)cc1,0.956 ± 0.054
7,CN1c2ccc(Br)cc2[C@H]2[C@H](CCN2C(=O)c2ccc(F)cc2)[C@H]1CO,1.03 ± 0.1
8,C[C@@H]1CN([C@@H](C)CO)C(=O)CCCn2nncc2CO[C@H]1CN(C)Cc1cccc2c1OCCCO2,1.07 ± 0.021
9,COc1ccc2c3c([C@H](CO)N(C)C[C@]33CCN(CC3)C(=O)c3ccccc3F)n(C)c2c1,0.929 ± 0.062
10,COCC(=O)Nc1ccc2c(c1)C(=O)N(C)C[C@@H](OC)[C@@H](C)CN(CCc1ccccc1)[C@@H](C)CO2,1.04 ± 0.039
11,C[C@@H]1CN([C@H](C)CO)C(=O)c2cc(NS(=O)(=O)c3ccc(F)cc3)ccc2O[C@@H](C)CCCCO[C@H]1CN(C)C(=O)Nc1ccc2c(c1)OCO2,1.04 ± 0.053
12,N#C[C@@H]1[C@@H](c2ccc(C#CC3(O)CCCC3)cc2)[C@@H](CO)N1C(=O)C1CCCCC1,1.11 ± 0.019
13,CO[C@H](CN(C)Cc1cc(F)ccc1F)[C@H](C)CN([C@H](C)CO)S(=O)(=O)c1ccc(C)cc1,0.904 ± 0.036
14,C[C@H]1CN([C@@H](C)CO)C(=O)CCCn2cc(nn2)CO[C@@H]1CN(C)S(=O)(=O)c1ccc(-n2cccn2)cc1,1.07 ± 0.028
15,CN1C(=O)c2cc(NS(=O)(=O)c3cccc(F)c3)ccc2OC[C@H]2O[C@H](CC(=O)N3CCc4ccccc4C3)CC[C@H]21,1.06 ± 0.11
16,C[C@@H]1CN([C@H](C)CO)C(=O)c2cc(NC(=O)CCC(F)(F)F)ccc2O[C@@H](C)CCCCO[C@H]1CN(C)C(=O)Nc1cccc2ccccc12,1.08 ± 0.036
17,C[C@H](CO)N1C[C@H](C)[C@@H](CN(C)Cc2ccc3c(c2)OCO3)Oc2ccc(NC(=O)C3CCCCC3)cc2C1=O,0.9297 ± 0.0034
18,O=C(C[C@H]1CC[C@@H]2[C@H](COC[C@H](O)CN2C(=O)c2ccncc2)O1)NCc1cc(F)cc(F)c1,1.08 ± 0.074
19,O=C(NC[C@H]1[C@H](c2ccccc2)[C@@H](CO)N1C(=O)Cc1ccncc1)C1CCC1,0.8695 ± 0.0059
20,COc1ccc(S(=O)(=O)N(C)C[C@@H]2OCCCC[C@H](C)Oc3ccc(NC(=O)Cc4ccccc4)cc3C(=O)N([C@H](C)CO)C[C@@H]2C)cc1,1.06 ± 0.15
21,O=C(C[C@@H]1C[C@H]2c3cc(NS(=O)(=O)c4ccc(F)cc4)ccc3O[C@H]2[C@@H](CO)O1)N1CCc2ccccc2C1,1.13 ± 0.057
22,COc1ccc(S(=O)(=O)N(C)C[C@@H]2OCCCC[C@H](C)Oc3ccc(NC(=O)Cc4ccccc4)cc3C(=O)N([C@H](C)CO)C[C@H]2C)cc1,1.12 ± 0.1
23,COc1ccccc1C#Cc1ccc([C@@H]2[C@H](CO)N3CCCCN(C(=O)C4CCC4)C[C@@H]23)cc1,0.967 ± 0.025

row,Structure (SMILES),viability index
1,CN(C)C(=O)c1ccc(-c2ccc([C@@H]3[C@@H]4CN(S(=O)(=O)c5ccccc5F)C[C@H]3N4)cc2)cc1,1.122 ± 0.0085
2,COc1ccccc1-c1ccc([C@H]2[C@@H](CO)N[C@@H]2CNC(=O)C2CC2)cc1,0.999 ± 0.091
3,O=C(C[C@@H]1CC[C@H]2[C@@H](COC[C@H](O)CN2C(=O)Nc2cc(Cl)cc(Cl)c2)O1)N1CCOCC1,1.089 ± 0.007
4,O=C(C[C@@H]1CC[C@H](NC(=O)Nc2ccc(C(F)(F)F)cc2)[C@@H](CO)O1)NCc1cccc(F)c1,0.989 ± 0.041
5,Cc1ccccc1-c1ccc([C@H]2[C@@H]3CN(C(=O)C4CCOCC4)C[C@H]2N3)cc1,1.07 ± 0.07
6,COc1ccc2c3c([nH]c2c1)[C@@H](CO)NC[C@]31CCN(Cc2ccc(F)cc2)CC1,0.963 ± 0.05
7,CCNC(=O)C[C@H]1CC[C@@H]2[C@H](COC[C@H](O)CN2C(=O)c2ccccn2)O1,1.1 ± 0.12
8,CCCC(=O)Nc1ccc2c(c1)C(=O)N(C)[C@H]1CC[C@H](CC(=O)NCc3cccc(F)c3)O[C@H]1CO2,1.07 ± 0.048
9,O=C(Cc1ccccn1)N1CC2(C1)[C@@H](c1ccccc1)[C@H](CO)N2C(=O)c1ccncc1,1.12 ± 0.045
10,CO[C@@H](CN(C)Cc1cc(F)ccc1F)[C@@H](C)CN(C(=O)Nc1ccc(C(F)(F)F)cc1)[C@H](C)CO,0.99 ± 0.028
11,COc1ccc([C@H]2C/C=C/C[C@@H](C)Oc3ccccc3C(=O)N(C)[C@H](C(C)C)C(=O)N2)c(OC)c1.COc1ccc([C@H]2C/C=C\C[C@@H](C)Oc3ccccc3C(=O)N(C)[C@H](C(C)C)C(=O)N2)c(OC)c1,0.964 ± 0.056
12,COc1ccc(NC(=O)N(C)C[C@@H]2OCc3ccccc3-c3ccccc3C(=O)N([C@@H](C)CO)C[C@@H]2C)c(OC)c1,0.9868 ± 0.0088
13,C[C@H]1CN([C@@H](C)CO)C(=O)c2ccccc2-c2ccccc2CO[C@H]1CN(C)C(=O)[C@H]1CCCN1C,0.981 ± 0.14
14,Cc1noc(C)c1NC(=O)N(C)C[C@@H]1OCc2cn(nn2)CCCC(=O)N([C@H](C)CO)C[C@@H]1C,1.08 ± 0.1
15,O=C(Cc1ccccn1)N1CC(=O)N2[C@H](CO)[C@H](c3ccc(C#CCC4CCCC4)cc3)[C@@H]2C1,1.01 ± 0.092
16,CCCN1C[C@H](C)[C@H](OC)CN(C)C(=O)c2cc(NS(=O)(=O)c3ccccc3)ccc2OC[C@H]1C,0.934 ± 0.08
17,O=C(C1CCOCC1)N1CC[C@@H]2[C@@H](CO)Nc3ccc(-c4cccc(F)c4)cc3[C@@H]21,1.05 ± 0.059
18,Cc1noc(C)c1S(=O)(=O)N(C)C[C@H]1OCc2ccccc2-c2ccccc2C(=O)N([C@H](C)CO)C[C@H]1C,1.017 ± 0.0036
19,O=C(C1CCC1)N1CC(=O)N2[C@H](C1)[C@H](c1ccc(Br)cc1)[C@@H]2CO,1.02 ± 0.0049
20,C/C=C/c1ccc([C@@H]2[C@H](CO)N(C(C)=O)[C@H]2CN(CC)C(=O)CN(C)C)cc1,1.08 ± 0.038
21,O=C(C[C@H]1C=C[C@H](NC(=O)Nc2cccc(F)c2)[C@@H](CO)O1)NCC1CCCCC1,0.95 ± 0.055
22,COc1ccc2c3c([C@H](CO)N(Cc4nccs4)C[C@]33CCN(CC4CCCC4)CC3)n(C)c2c1,0.841 ± 0.028
23,CN(C)C(=O)c1cccc(-c2ccc([C@H]3[C@H]4CNC[C@@H]3N4S(=O)(=O)Cc3ccccc3)cc2)c1,1.04 ± 0.021

row,Structure (SMILES),viability index
1,COc1ccc2c3c([nH]c2c1)[C@H](CO)N(Cc1ccncc1)C[C@]31CN(Cc2ccc(cc2)-c2ccccn2)C1,1.008 ± 0.01
2,O=C(NC[C@H]1[C@H](c2ccccc2)[C@H](CO)N1C(=O)Cc1ccncc1)C1CCC1,1.05 ± 0.013
3,C[C@@H]1CCCCO[C@@H](CN(C)CC2CC2)[C@H](C)CN([C@@H](C)CO)C(=O)c2cc(NC(=O)c3ccccc3)ccc2O1,1.14 ± 0.018
4,O=C(Nc1ccc(C(F)(F)F)cc1)N[C@H]1C=C[C@H](CC(=O)N2CCCCC2)O[C@@H]1CO,1.15 ± 0.075
5,C[C@H]1CCCCO[C@@H](CN(C)Cc2ccncc2)[C@@H](C)CN([C@@H](C)CO)C(=O)c2cc(NC(=O)Cc3ccccc3)ccc2O1,1.03 ± 0.088
6,C[C@H](CO)N1C[C@H](C)[C@H](CN(C)S(=O)(=O)c2cccs2)Oc2ccc(NC(=O)Nc3cccc4ccccc34)cc2C1=O,0.9579 ± 0.0044
7,O=C(C[C@H]1C[C@@H]2c3cc(NS(=O)(=O)c4ccc(F)cc4)ccc3O[C@@H]2[C@H](CO)O1)N1CCc2ccccc2C1,0.95 ± 0.08
8,CCC(=O)N1C[C@@H](O)COC[C@H]2O[C@H](CC(=O)NC)CC[C@@H]21,1.09 ± 0.025
9,O=C(CN1CCOCC1)N1CCCCN2[C@H](CO)[C@@H](c3ccc(Br)cc3)[C@@H]2C1,1 ± 0.1
10,C[C@@H]1CCCCO[C@@H](CN(C)C(=O)CCCN(C)C)[C@@H](C)CN([C@H](C)CO)C(=O)c2cc(NS(=O)(=O)c3ccc(Cl)cc3)ccc2O1,1.17 ± 0.14
11,Cc1cccc(S(=O)(=O)N2C[C@H]3[C@@H](c4ccccc42)[C@H](CO)N3C(=O)c2ccccc2)c1,1.09 ± 0.013
12,O=S(=O)(c1ccccc1)N1CC2(C1)[C@H](c1ccccc1)[C@@H](CO)N2CC1CCOCC1,1.02 ± 0.079
13,CCCC#Cc1ccc([C@H]2[C@H]3CN(C(=O)c4cccnc4)CC(=O)N3[C@H]2CO)cc1,0.964 ± 0.051
14,C[C@H]1CN([C@@H](C)CO)C(=O)CCCn2cc(nn2)CO[C@@H]1CN(C)C(=O)c1ccc(N2CCN(C)CC2)cc1,0.9784 ± 0.0069
15,CN(C)CC(=O)N1[C@H](C#N)[C@@H](c2ccc(C#CC3CCCCC3)cc2)[C@@H]1CO,1.09 ± 0.021
16,COc1ccc(-c2ccc3n(c2=O)C[C@@H]2[C@@H](CO)[C@H](C(=O)NCC4CC4)N(C(=O)NC(C)C)[C@H]32)cc1,1.06 ± 0.11
17,CCCC#Cc1ccc2c(c1)O[C@H](CN(C)Cc1ccccn1)[C@H](C)CN([C@H](C)CO)S2(=O)=O,1.028 ± 0.0052
18,C/C=C/c1ccc([C@@H]2[C@H](CO)N(C(C)=O)[C@H]2CN(C(C)=O)C2CCCC2)cc1,1.04 ± 0.074
19,C[C@H](CO)N1C[C@H](C)[C@H](CN(C)S(=O)(=O)c2ccc([N+](=O)[O-])cc2)OCc2ccccc2-c2c(n(C)c3ccccc23)C1=O,0.969 ± 0.015
20,CCCNC(=O)N1[C@H](CO)[C@H]2c3ccccc3N(C(=O)Nc3cccc(Cl)c3)C[C@H]21,1.02 ± 0.045
21,O=C(NCC[C@@H]1CC[C@@H](NS(=O)(=O)c2ccc(F)cc2)[C@@H](CO)O1)c1ccc2c(c1)OCO2,0.963 ± 0.095
22,C/C=C/c1ccc([C@@H]2[C@@H](CO)N(CC3CCCC3)C23CN(S(=O)(=O)CC)C3)cc1,1.037 ± 0.0019
